What all share (test): ITC; 5 µM full-length FtsZ or FtsZ core in the cell, 50 µM FtsZ tail or MinCN in the syringe; TKEG buffer (50 mM Tris pH 8, 50 mM KCl, 1 mM EDTA, 5% glycerol), 25°C; 20 injections of 2 µL; each replicate fitted
In test [1] the target is Full-length FtsZ S333A (Bacillus subtilis) (UniProt P17865).
The target of test [2] is FtsZ core (residues 1-315) M292H/I293W/F294K (Bacillus subtilis) (UniProt P17865).
The target in test [3] is Full-length FtsZ S333E (Bacillus subtilis) (UniProt P17865).

Some entries of the source have several records that differ or are many. The other results are left out here. There may be further records. For part of these data: Results that share an entry appear to be repeats (runs, samples, wells or individuals); one of them may be the mean. Entries with a single value are a further part of the results.

B1: MinCN, the 92aa N-terminal domain of MinC (domain or fragment, Bacillus subtilis, UniProt Q01463 1-92, looked up)
chain: MKTKKQQYVTIKGTKNGLTLHLDDACSFDELLDGLQNMLSIEQYTDGKGQKISVHVKLGNRFLYKEQEEQLTELIASKKDLFVHSIDSEVIT
notes: MinC, Bacillus subtilis, N-terminal domain, 92 aa; amplified from B. subtilis genomic DNA; Cloned in pGEX-6P-1 with a PreScission site; cleavage of GST not described; source: E. coli BL21 Star (DE3), purified
One may read the Kd as the free concentration of one partner at which half of the binding sites on the other are occupied at equilibrium, for simple one-to-one binding. Read a high Kd as lower affinity. A word on the stoichiometry N: it is a count of units in the complex or per binding partner. As for B1, the Kd was 441 nM in test [1] (mean of three replicates); 452 nM, 433 nM, 440 nM [one table] in test [1] (single replicate); 402 nM in test [2] (mean of three replicates); 431 nM, 349 nM, 427 nM [one table] in test [2] (single replicate); 244 nM in test [3] (mean of three replicates); 252 nM, 256 nM, 223 nM [one table] in test [3] (single replicate). The stoichiometry N was 1.03 in test [1] (mean of three replicates); 0.931, 1.05, 1.11 [one table] in test [1] (single replicate); 1.25 in test [2] (mean of three replicates); 1.24, 1.38, 1.14 [one table] in test [2] (single replicate); 0.991 in test [3] (mean of three replicates); 1.05, 0.967, 0.961 [one table] in test [3] (single replicate).

(Values after article PMC12747378, “FtsZ phosphorylation modulates tail-core binding to tune cell division in Bacillus subtilis” (PLOS One, 2025).)
